# Experimental data as given in paper PMC4336329 (PLoS ONE, 2015).
# Screen size: about 310,000 compounds; about 2,200 (0.71%) showed an effect of 50% or more. The effect is printed as a negative number. Some of the results follow.
# Target: human ether-à-go-go-related gene (hERG) potassium channel (human, UniProt Q12809)
# Experiment: primary screen, population patch clamp on CHO cells stably expressing hERG
# Chain of human ether-à-go-go-related gene (hERG) potassium channel (Q12809 whole entry, looked up): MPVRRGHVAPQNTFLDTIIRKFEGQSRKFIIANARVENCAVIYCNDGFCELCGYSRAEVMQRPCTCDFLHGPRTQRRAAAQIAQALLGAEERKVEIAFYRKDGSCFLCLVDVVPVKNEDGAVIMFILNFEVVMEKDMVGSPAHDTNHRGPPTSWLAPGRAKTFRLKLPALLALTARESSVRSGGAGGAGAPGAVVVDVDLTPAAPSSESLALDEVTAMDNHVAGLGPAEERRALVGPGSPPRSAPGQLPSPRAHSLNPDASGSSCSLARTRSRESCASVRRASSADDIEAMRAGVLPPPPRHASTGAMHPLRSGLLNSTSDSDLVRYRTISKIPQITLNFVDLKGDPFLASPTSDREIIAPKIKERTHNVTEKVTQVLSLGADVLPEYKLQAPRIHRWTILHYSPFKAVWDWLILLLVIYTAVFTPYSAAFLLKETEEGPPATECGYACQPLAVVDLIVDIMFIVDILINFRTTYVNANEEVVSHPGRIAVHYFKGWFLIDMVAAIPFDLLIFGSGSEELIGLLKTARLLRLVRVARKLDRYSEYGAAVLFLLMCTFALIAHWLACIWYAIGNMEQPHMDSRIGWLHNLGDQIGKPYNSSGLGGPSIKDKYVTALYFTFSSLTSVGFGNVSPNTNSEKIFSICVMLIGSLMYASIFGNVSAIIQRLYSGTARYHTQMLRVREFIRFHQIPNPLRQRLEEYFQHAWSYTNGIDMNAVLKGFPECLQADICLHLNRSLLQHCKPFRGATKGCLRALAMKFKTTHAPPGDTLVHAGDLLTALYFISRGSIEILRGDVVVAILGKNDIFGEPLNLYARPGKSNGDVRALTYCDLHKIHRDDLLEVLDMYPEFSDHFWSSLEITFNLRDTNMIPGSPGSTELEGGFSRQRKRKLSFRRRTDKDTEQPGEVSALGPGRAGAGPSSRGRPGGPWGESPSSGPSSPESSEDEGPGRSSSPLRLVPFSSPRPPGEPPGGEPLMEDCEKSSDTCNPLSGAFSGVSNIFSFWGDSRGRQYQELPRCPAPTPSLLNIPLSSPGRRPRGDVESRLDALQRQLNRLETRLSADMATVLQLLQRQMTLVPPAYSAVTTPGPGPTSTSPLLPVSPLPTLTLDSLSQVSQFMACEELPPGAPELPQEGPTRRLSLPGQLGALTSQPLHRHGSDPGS
row,SMILES,"hERG current change (%, negative = inhibition) at 1uM [%]"
1,COc1ccc(C(=O)C2CCCN(Cc3cc(Cl)ccc3O)C2)c(OC)c1 (stereo not shown),12.6
2,CC/C(O)=C1\C(=O)CC(C)(C)CC1=Nc1ccccc1C,9.22
3,Cc1cc(-c2n[nH]c(=S)n2-c2ccc(C)c(C)c2)no1,9.72
4,O=C(CCn1nc(-c2ccccc2)ccc1=O)NCCCN1CCCCCC1,-19.2
5,CC1SCC(NC(=O)c2cccc(Cl)c2)CS1 (stereo not shown),1.12
6,C(=N\n1cnnc1)/c1cccs1,5.5
7,CCc1cc(=O)oc2cc(C)cc(O)c12,5.7
8,CN(C)CCOCCP(=O)(c1ccccc1)c1ccccc1,-1.59
9,N#Cc1c(-c2ccccc2)nc(SCc2cccc(C(F)(F)F)c2)[nH]c1=O,16.7
10,O=C(COC(=O)C1COc2ccccc2O1)NC(=O)NC1CCCC1 (stereo not shown),13.1
11,Cn1c(CNC(=O)Nc2ccccc2Cl)nnc1SCc1ccccc1,2.3
12,Cc1cc(NC(=O)CSc2nc3c(cc2C#N)CCCC3)no1,6.73
13,COc1ccc2c(c1OC)C(=O)N1c3ccccc3SC21 (stereo not shown),3.14
14,Cc1cc(C)n(-c2ccc(C(F)(F)F)cc2[N+](=O)[O-])n1,8.1
15,Cc1cc(-c2n[nH]c(=S)n2/N=C/C(Cl)=C/c2ccccc2)n[nH]1,5.13
16,Cc1cc(C)c(NC(=O)Nc2ccccc2)c(C)n1,20.2
17,NC(=O)c1cc(-c2ccccc2)nc(N2CCCCCC2)n1,19.9
18,CCCCn1nc2cc(C(=O)N(CC)c3ccc(OC)cc3)ccc2c1OCC,16
19,Cc1cc(C)n(-c2nnc(C)n2/N=C/c2ccco2)n1,15.3
20,Nc1cccc(-c2cc(-c3ccccc3)nc(-c3cccc(N)c3)n2)c1,4.73
21,CNC(=O)C(=O)NCCN1CCN(C(=O)c2ccc([N+](=O)[O-])cc2)CC1,9.09
22,O=C(N/N=C1\CCCc2oc(C(=O)O)cc21)c1ccccc1,-18.2
23,O=C(CN1CCc2ccccc2C1)Nc1cccc(S(=O)(=O)N2CCOCC2)c1,4.21

row,SMILES,"hERG current change (%, negative = inhibition) at 1uM [%]"
1,COc1cccc(-c2nc(=S)c3c(o2)CCCC3)c1,14.1
2,CNC(=O)OCCSCCS(=O)(=O)c1ccc(Cl)cc1,7.55
3,Cc1ccc(NC(=O)CCc2c(C)[nH]c(=O)c(C#N)c2C)cc1,9.52
4,Cc1c(F)cccc1NS(=O)(=O)c1ccccc1C#N,9.46
5,CC(C)n1cnc2c(=S)nc[nH]c21,15.7
6,CCOC(=O)C1(C)NC(c2ccc(OC)cc2OC)C2C(=O)N(CC)C(=O)C21 (stereo not shown),16.4
7,Cn1nc(-c2ccccc2)c(-c2nc(-c3ccccc3Cl)no2)c1Cl,6.29
8,Nc1nonc1-n1nnc(C(=O)N/N=C/c2ccc(OCc3cccc(Cl)c3)cc2)c1CN1CCCCC1,21.6
9,CC(C)(C)C(=O)Cn1ncc(N2CCOCC2)c(Br)c1=O,12.2
10,Clc1ccc(CSc2nnc(-c3ccncc3)o2)c(Cl)c1,16.3
11,COc1cccc(C(C)NC(=O)Nc2ccccc2Cl)c1 (stereo not shown),10.2
12,COc1ccc(NC(=O)c2cc(C)on2)cc1,-1.54
13,CC(=O)NC(CCS(C)(=O)=O)C(=O)Nc1cccc(C)c1 (stereo not shown),4.79
14,Cc1cc(C)c2nc3c(c(C(=O)O)c2c1)CCC3,13.6
15,CC12CCC(C(=O)N(CCCCN3CCN(Cc4ccccc4)CC3)C1=O)C2(C)C.Cl (stereo not shown),-4.08
16,CCOc1ccc(Cl)cc1S(=O)(=O)n1cnc2cc(C)c(C)cc21,10.9
17,CCOc1ccc(OCCC(=O)N(CC)CC(=O)Nc2ccccc2C(F)(F)F)cc1,-7.63
18,COc1ccccc1C(=O)Nc1ccnn1C1CCN(Cc2ccc3nonc3c2)CC1,-61.8
19,CC(=O)c1cccc(N(C(=O)c2ccccn2)C(C(=O)NC2CCCCC2)c2ccccc2)c1 (stereo not shown),13
20,COc1ccc(/C(C)=C(\C#N)C(=O)OC(C)C)cc1OC,7.26
21,COCCCNCC(O)C(F)(F)F (stereo not shown),13.5
22,C/C(=N\N=C1/NC(=O)C(C)S1)c1ccco1 (stereo not shown),1.89
23,CCC1CCCCN1C(=O)CSc1nc2ncccc2[nH]1 (stereo not shown),16.2

row,SMILES,"hERG current change (%, negative = inhibition) at 1uM [%]"
1,CC(C)CC(=O)NC(=S)NNC(=O)c1ccc([N+](=O)[O-])cc1,11.1
2,Cc1ccc(Cc2nnc(SCC(=O)Nc3ccccc3)n(N)c2=O)cc1,0.134
3,Cc1cc(N)n2ncc(-c3ccc(Cl)cc3)c2n1,0.838
4,CC(=O)c1ccc(NS(=O)(=O)Cc2ccc(Cl)cc2)cc1,-8.67
5,COc1ccc(NC(=O)CN(C)C(=O)c2ccccc2CCc2ccccc2)cc1,13
6,Cc1ccc2c(CN3CCN(S(=O)(=O)c4ccccc4C(F)(F)F)CC3)cc(=O)oc2c1C,5.6
7,CCc1ccccc1NC(=O)C1COc2ccccc2O1 (stereo not shown),13.3
8,Cc1ccc(-c2nc(CS(=O)(=O)CC(=O)NC3CCCCCC3)c(C)o2)cc1,7.24
9,O=C(CSc1nc(C(F)(F)F)cc(=O)[nH]1)N1CCCCCC1,5.27
10,O=C(NCc1cccnc1)c1ccc(COc2ccccc2Cl)o1,8.89
11,COCCCC1CCN(Cc2cn[nH]c2-c2cc(OC)c(OC)c(OC)c2)CC1,-40.1
12,COc1ccc(NC(=O)/C(C#N)=C/c2ccc(Br)o2)cc1,-9.37
13,O=C(NNC(=O)c1cccnc1Cl)c1ccc(F)cc1,9.53
14,NC(=O)N=Nc1c2[nH]c3ccccc3nc-2c2ccccc12,12
15,O=Cc1c(NCc2ccccc2F)c2ccccc2[nH]c1=O,11
16,CCOc1cc(OCC)cc(C(=O)Nc2cccc(C(C)=O)c2)c1,3.27
17,Cn1c(SCC(=O)OCc2ccccc2)nnc1-c1ccco1,6.34
18,CC(C)Oc1ccc(C(=O)Nc2ccc(N(C)C)cc2)cc1,1.17
19,COc1ccccc1-c1nnc(SCC(=O)NCc2cccs2)n1N,7.38
20,O=C(NCc1ccc2c(c1)OCO2)c1cc(F)c(F)cc1Cl,6.86
21,COC(=O)C1=C(C(=O)OC)[C@@H]2N(Cc3ccccc3)c3ccccc3[C@@]23C[C@@H](C(=O)OC)N(C(=O)c2ccc(Br)cc2)C3=N1,15.6
22,Cc1ccc(C2NC(=O)Cc3ccccc32)cc1 (stereo not shown),5.35
23,CC(C(=O)Nc1cc([N+](=O)[O-])ccc1Cl)N1CCN(c2ccccc2)CC1 (stereo not shown),-7.6

row,SMILES,"hERG current change (%, negative = inhibition) at 1uM [%]"
1,O=C(NCc1ccccc1Br)c1cccc2c1C(=O)c1ccc(N3CCOCC3)cc1S2(=O)=O,13.9
2,COc1ccc(CCNC(=O)CSCc2ccc(Cl)cc2)cc1OC,-6.37
3,CC(C)C(=O)N1CCN(c2ccccc2NC(=S)NC(=O)c2ccco2)CC1,12.7
4,CCn1c(=O)cc(SCC(=O)N2CCCCC2)c2ccccc21,3.68
5,CCCCc1ccc(NC(=O)CSc2nc(=O)n(CCN(CC)CC)c3c2CCC3)cc1,-0.0891
6,Cc1cc(-c2cn3ccccc3n2)c(C)n1-c1ccccc1,4.91
7,CCOC(=O)C1(CCCc2ccccc2)CCN(S(C)(=O)=O)CC1,5.98
8,CC(Oc1cc(F)ccc1[N+](=O)[O-])C(=O)N(C)CC(=O)Nc1ccccc1C(F)(F)F (stereo not shown),7.16
9,CC1(c2ccc3ccccc3c2)NC(=O)N(CC(N)=O)C1=O (stereo not shown),12.2
10,CCOc1ccc(C(=O)C2CCN(CC(=O)Nc3ccccc3N3CCOCC3)CC2)cc1,-19.5
11,CCCn1cc(S(=O)(=O)CC(=O)NC2CCCCC2)c2ccccc21,5.76
12,CN(C(=O)CSc1nc(C2CC2)nc2ccccc12)c1nc(-c2ccccc2)cs1,3.28
13,CCN(CCO)c1nc(SC)nc2c1sc1nc(-c3ccco3)c3c(c12)CCC3,9.03
14,Cc1ccc(NC(=O)c2ccc3c(c2)OCCO3)cc1C,12.3
15,Cc1cc(C)nc(N2CCCC(C(=O)Nc3nnc(C(C)(C)C)s3)C2)n1 (stereo not shown),12.6
16,CCOC(=O)CCP(=O)(O)C(O)(c1ccccc1)c1ccccc1,8.79
17,Cc1nc(N2CCN(C(=O)c3ccco3)CC2)nc2c1C(=O)CCC2,18
18,CC1CCCN(C(=O)CCNS(=O)(=O)c2ccc(Br)cc2)C1 (stereo not shown),-2.54
19,CC1CCN(CCCN2C(=O)C3C(C(=O)Nc4ccc(Cl)cc4)C4C=CC3(O4)C2C(=O)NC2CCCCC2)CC1 (stereo not shown),8.73
20,O=C(NCc1nc2ccccc2[nH]1)C1=C[C@H](c2ccc(C(F)(F)F)cc2)C[C@H](OCc2ccc(CO)cc2)O1,8.44
21,CCOC(=O)Cc1csc(NC(=O)CSc2nnc(-c3ccc(NS(=O)(=O)CC)cc3)o2)n1,3.36
22,O=C(NNc1nc(-c2ccccc2)cs1)c1cccs1,14.9
